About 150 (12%) of roughly 1,300 compounds were called active. The inconclusive results got no clear call from the source; some entries with a clear call stand among them for comparison. Calls follow the shape of the dose curve; as a rule, active = well fitted cell-killing curve with a large enough effect; inconclusive = small, poorly fitted or top-dose-only effect, or effect the other way; inactive = flat fitted curve, though single readings scatter. Potencies beside an inconclusive call are fits to weak or partial responses and may not hold up.
Test: qHTS of small molecules that selectively kill Giardia lamblia: Hit Validation in HepG2 cytotox;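 also: compound exposure lasted overnight at 37 deg C; nearly all actives have a fitted effect of over 55% in size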;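 as to activity change, negative = cytotoxicity: viability measured as cellular ATP by ATPLite luminescence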
Conditions: cell viability; Potency: HepG2 cytotoxicity; series mostly up to 38.3 µM; activity change, negative = cytotoxicity: at the top concentration
Outline: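 HepG2 cells seeded and incubated overnight at 37 deg C, then 23 nL compound added by pintool and incubated overnight at 37 deg C. Viability read as ATP luminescence with ATPLite after 15 min at room temperature.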
% is scaled to controls: 0 for no effect and ±100 for the full control effect; potency is read from the fitted curve at half-maximal effect; tags tell the direction and shape of the fitted curve.

Structure (SMILES)	Potency	activity change, negative = cytotoxicity
CC(C)(C)C(=O)N1CCN(c2ccc(NC(=O)c3ccc([N+](=O)[O-])o3)cc2)CC1	active: 6.56 µM	
COC(=O)c1ccccc1NC(=O)N1c2ccccc2Sc2ccccc21		inactive: 5.99%
Cc1cc2ncn(/N=C/c3ccc([N+](=O)[O-])s3)c2cc1C	inconclusive: 26.1 µM [cytotoxic, single point]	
O=C(Cc1ccc2c(c1)OCO2)NN=Cc1ccc([N+](=O)[O-])o1	inconclusive: 20.7 µM [cytotoxic, single point]	
O=C(Nc1cccc(NC(=O)c2cccs2)c1)c1ccc([N+](=O)[O-])o1	inconclusive: 3.69 µM [cytotoxic, full curve]	
Cc1nc2cc(-c3ccc(Cl)cc3)nn2c(NCCN(C)C)c1C	inconclusive: 20.7 µM [cytotoxic, partial curve, poor fit]	
CCc1ccc(C(=O)Nc2nc3ccccc3[nH]2)cc1	inconclusive: 2.07 µM [cytotoxic, full curve]	
O=[N+]([O-])c1ccc(/C=[N+](\[O-])[C@@H]2CCCC[C@@H]2/[N+]([O-])=C/c2ccc([N+](=O)[O-])o2)o1	inconclusive: 26.1 µM [cytotoxic, single point]	
CNc1nnc(-c2ccc(N(C)C)cc2)s1	active: 4.14 µM	
O=C(Nc1ccc2c(c1)OCCO2)c1cc(-c2ccccn2)nc2ccc(Br)cc12		inactive: -5.28%
NC(=O)CCCn1c(C(=O)c2ccc(Cl)cc2)c2ccc([N+](=O)[O-])cc2[n+]1[O-]	inconclusive: 18.5 µM [cytotoxic, single point]	
Oc1cccc(-c2nnc(-c3cccc(O)c3)nn2)c1	active: 3.69 µM	
O=C(COC(=O)c1ccc(Br)o1)Nc1ncc([N+](=O)[O-])s1	inconclusive: 0.414 µM [cytotoxic, partial curve, poor fit]	
CC(C)C(=O)N1CCN(c2ccc(NC(=O)c3ccc([N+](=O)[O-])o3)cc2Cl)CC1	inconclusive: 8.26 µM [cytotoxic, partial curve, poor fit]	
CN=C1C=C/C(=N/N=c2\ccn(O)cc2C)C=C1C	inconclusive: 10.4 µM [cytotoxic, partial curve, poor fit]	
N/C(=N\N=Cc1ccc2c(c1)OCO2)NN=Cc1ccc2c(c1)OCO2	inconclusive: 23.3 µM [cytotoxic, single point]	
O=[N+]([O-])c1ccc(CSc2nnc(-c3cnccn3)o2)cc1		inactive: -9%
CC(=O)c1ccc(NC(=O)CSc2ccsc2[N+](=O)[O-])cc1	inconclusive: 26.1 µM [cytotoxic, single point]	
Cc1cc(NC(=O)c2ccc3c(c2)OCCO3)no1	inconclusive: 5.21 µM [cytotoxic, partial curve]	
COC(=O)c1c(NC(=O)c2ccc([N+](=O)[O-])o2)sc2c1CCN(C(C)C)C2	inconclusive: 13.1 µM [cytotoxic, partial curve]	
CCOC(=O)c1c(C)n(C)c2cc([N+](=O)[O-])c(O)c([N+](=O)[O-])c12	inconclusive: 20.7 µM [rising, partial curve, poor fit]	
CCN(CC)CCCC(C)Nc1c2ccc(Cl)cc2nc2ccc(OC)cc12 (stereo unspecified)	active: 4.65 µM	
Cc1ccc(S(=O)(=O)N2[C@@H](c3ccc(Cl)cc3)C(C(=O)O)=CC[C@H]2c2cccc(Cl)c2)cc1		inactive: 4.59%
CCOC(=O)Cc1csc(SCC(=O)NC2CCCCC2)n1		inactive: 11.9%

Structure (SMILES)	Potency	activity change, negative = cytotoxicity
Cn1c(-c2ccc(C(=O)c3ccccc3)s2)nc2ccccc21	inconclusive: 1.65 µM [cytotoxic, full curve]	
CCOc1ccc(-n2c(C)c(C(C)=O)c3cc(O)ccc32)cc1	inconclusive: 8.26 µM [rising, partial curve, poor fit]	
COc1ccc(-c2cn3ccsc3n2)cc1	inconclusive: 6.56 µM [cytotoxic, partial curve]	
CCc1ccc(-c2nc3c(=O)n(C)c(=O)nc-3n(CC)n2)cc1	active: 1.85 µM	
O=C(Nc1ccccc1)Nc1ccc(C(=O)N2CCCC2)cc1	inconclusive: 3.29 µM [cytotoxic, full curve]	
CC(=O)O[C@@H]1[C@@H](O)CN[C@@H]1Cc1ccccc1	inconclusive: 0.521 µM [cytotoxic, full curve]	
Clc1ccc2c(N/N=C/c3ccccc3Br)ccnc2c1	active: 14.7 µM	
CC1(C)Oc2cc3oc(-c4cc(O)cc(O)c4)cc3cc2CC1O (stereo unspecified)	active: 5.85 µM	
O=C(Nc1ncc([N+](=O)[O-])s1)C1COc2ccccc2O1 (stereo unspecified)	inconclusive: 13.1 µM [cytotoxic, single point]	
O=[N+]([O-])c1nn(-c2ccc3c(c2)OCCO3)n(O)c1=NCCCO		inactive: 6.86%
Cc1ncc([N+](=O)[O-])n1CCOC(=O)NC(NCc1ccccc1Cl)C(Cl)(Cl)Cl (stereo unspecified)	inconclusive: 14.7 µM [rising, partial curve, poor fit]	
O=Nc1c2ccc[nH]c-2c2ccc([N+](=O)[O-])cc12		inactive: 10.8%
Cc1ccc([C@@H]2CC=C(C(=O)O)[C@H](c3ccccc3)N2S(=O)(=O)c2ccc(C)cc2)cc1		inactive: 3.15%
O=C(N/N=C\c1ccc([N+](=O)[O-])s1)c1cncc(Br)c1	active: 7.36 µM	
COc1ccccc1NS(=O)(=O)c1cccc(C(=O)N/N=C/c2ccc([N+](=O)[O-])o2)c1	inconclusive: 16.5 µM [cytotoxic, partial curve]	
Cc1ccc(C)c(Sc2ccc(NC(=O)CCl)cc2)c1		inactive: -24.4%
O=C(NC1CCCCC1)c1ccc([N+](=O)[O-])o1	inconclusive: 8.26 µM [cytotoxic, single point]	
O=C(Nc1ccc2[nH]ccc2c1)c1ccccc1	active: 4.14 µM	
O=[N+]([O-])c1cccc(-n2nnnc2CNCc2ccccc2)c1		inactive: 4.65%
O=C(COc1cccnc1[N+](=O)[O-])N1CCc2ccccc21	inconclusive: 1.65 µM [rising, full curve, poor fit]	
Cc1cccc(-c2nnc(SCc3cc(=O)[nH]c4ccccc34)n2C)c1	inconclusive: 26.1 µM [rising, partial curve, poor fit]	
CCC(=O)Nc1nc(-c2cc([N+](=O)[O-])cs2)cs1		inactive: 22.8%
Cc1cccc(N2CCN(Cc3ccc([N+](=O)[O-])o3)CC2)c1C		inactive: 13.8%
CCN(CC)S(=O)(=O)c1ccc(N2CCCC2)c(NC(=O)c2ccc([N+](=O)[O-])o2)c1	inconclusive: 1.85 µM [cytotoxic, partial curve, poor fit]	

Structure (SMILES)	Potency	activity change, negative = cytotoxicity
Cc1ccnc(NC(=S)NC(=O)c2cccs2)c1	inconclusive: 7.36 µM [cytotoxic, partial curve]	
Cn1nc(-c2ccc(Cl)cc2)nc2c(=O)n(C)c(=O)nc1-2	inconclusive: 23.3 µM [cytotoxic, partial curve, poor fit]	
Cc1ccccc1/C=N/Nc1ccnc2cc(Cl)ccc12	inconclusive: 14.7 µM [cytotoxic, single point]	
Cc1cccc(NC(=O)CN2C(=O)S/C(=C\c3ccc(O)c([N+](=O)[O-])c3)C2=O)c1		inactive: 1.03%
COc1ccc(-c2cc(=O)c3ccccc3o2)cc1		inactive: -16%
CN1CCN(C(=O)/C=C/c2ccc([N+](=O)[O-])o2)CC1	inconclusive: 7.36 µM [cytotoxic, single point]	
O=C(Nc1cccc(NC(=O)c2ccccc2Cl)c1)c1ccc([N+](=O)[O-])o1	active: 2.61 µM	
NCCCn1c(C(=O)c2cc(Cl)c(N)c(Cl)c2)c2ccc([N+](=O)[O-])cc2[n+]1[O-]	inconclusive: 2.61 µM [cytotoxic, full curve]	
O=C(N/N=C/c1ccc([N+](=O)[O-])o1)c1cn2ccc3ccccc3c2n1		inactive: -5.23%
COc1ccc(CCN=c2c([N+](=O)[O-])nn(-c3cccc(C)c3)n2O)cc1OC	inconclusive: 10.4 µM [rising, partial curve, poor fit]	
Cc1cc2[nH]c3c(c[n+](C)c4ccccc34)c2cc1C	active: 3.29 µM	
O=[N+]([O-])c1cccc2nc3ccccc3c(NCCCn3ccnc3[N+](=O)[O-])c12	active: 0.0736 µM	
CN(C(=O)CN1CCN(c2ccc([N+](=O)[O-])cn2)CC1)c1ccccc1		inactive: 22.4%
CCN1CCN(c2ccc(NC(=O)c3ccc([N+](=O)[O-])o3)cc2Cl)CC1	inconclusive: 26.1 µM [cytotoxic, single point]	
CCOC(=O)c1cnc(Nc2nc3ccccc3o2)nc1CSC(=S)N(CC)CC	inconclusive: 10.4 µM [rising, partial curve]	
NC(=O)C1(Nc2ccc(-c3ccc(Cl)cc3)cc2)CCCC1	inconclusive: 0.369 µM [cytotoxic, partial curve]	
N/C(=N\O)c1ccc([N+](=O)[O-])s1		inactive: 6.1%
O=C(Cc1ccccc1)Nc1nnc(-c2cccs2)s1		inactive: -2.94%
COc1ccc(-c2coc3cc(O)ccc3c2=O)cc1	inconclusive: 0.585 µM [cytotoxic, partial curve, poor fit]	
CCN(c1ccccc1)S(=O)(=O)c1cccc(C(=O)OCc2nc3sc(C)c(C)c3c(=O)[nH]2)c1		inactive: 14.1%
O=C(Cn1ccnc1[N+](=O)[O-])NCc1ccccc1	inconclusive: 9.27 µM [rising, partial curve, poor fit]	
Cc1oc2c(c1C(=O)N1CCC(C)CC1)C(=O)c1ccccc1C2=O	inconclusive: 23.3 µM [cytotoxic, single point]	
O=C(N/N=C/c1ccc([N+](=O)[O-])o1)c1cn(-c2ccccc2)nc1-c1ccc(Cl)cc1	inconclusive: 4.65 µM [rising, partial curve, poor fit]	
